Measured values reported in PubChem BioAssay AID624417 (National Center for Advancing Translational Sciences (NCATS), 2012).
Among all 410,000 compounds or so, about 6,400 (1.6%) were called active. Inconclusive means that the source gave no clear call. Such entries were picked first, then a sample of the others. Calls come from the whole dose curve; as a rule, active = well fitted inhibition curve with a large enough effect; inconclusive = small, poorly fitted or top-dose-only effect; inactive = no such curve, though single readings can be large or run the other way. Where the call is inconclusive, the potency comes from a doubtful curve fit.

biological target: Glucagon-like peptide 1 receptor (Homo sapiens) (UniProt P43220); assay: qHTS of GLP-1 Receptor Inverse Agonists (Inhibition Mode); settings: HEK293 GLP-1R CRE-luciferase, luminescence, 24 h, GLP-1R form is constitutively active; series mostly up to 38.3 µM; note: nearly all actives have a fitted effect of over 55% in size
UniProt P43220, sequence (P43220 whole entry, looked up): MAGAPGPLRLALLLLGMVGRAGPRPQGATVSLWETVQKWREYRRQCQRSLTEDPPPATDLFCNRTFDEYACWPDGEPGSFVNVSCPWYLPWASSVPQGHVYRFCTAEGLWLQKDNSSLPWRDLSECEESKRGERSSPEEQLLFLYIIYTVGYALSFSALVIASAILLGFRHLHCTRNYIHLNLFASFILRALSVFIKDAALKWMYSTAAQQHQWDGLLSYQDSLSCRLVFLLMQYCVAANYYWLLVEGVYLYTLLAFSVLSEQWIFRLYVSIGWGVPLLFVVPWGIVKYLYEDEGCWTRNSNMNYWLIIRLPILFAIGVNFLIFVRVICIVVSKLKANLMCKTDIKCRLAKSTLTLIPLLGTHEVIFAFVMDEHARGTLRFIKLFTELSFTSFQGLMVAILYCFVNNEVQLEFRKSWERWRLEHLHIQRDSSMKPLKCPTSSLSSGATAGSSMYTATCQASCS
How it was run: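 qHTS in 1536-well format: reporter HEK293 cells expressing constitutive GLP-1R activity in DMEM + 10% Nu serum, 24 hr with compounds at 37 deg C, luminescence read after 12 min with detection reagent.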
Potency is the fitted concentration of half-maximal effect; tags give direction and shape of the fitted curve.

Potency, inactive:
Cc1nnc2sc(SCC(=O)Nc3ccc(Br)cc3)nn2c1=O
CCSCCOC(=O)C1=C(C)NC2=C(C(=O)CCC2)C1c1coc2ccccc2c1=O (configuration not stated)
COc1cc(CNCc2ccc(SC)cc2)cc(OC)c1
CCOC(=O)C1CCN(C(c2ccc(OCC)cc2)c2c(O)cc(C)n(CCOC)c2=O)CC1 (configuration not stated)
O=C(NCc1cccc(F)c1)c1ccc(CN2CC(=O)N3CCCCC3C2=O)cc1 (configuration not stated)
Cc1cccc(C)c1OCC(=O)N/N=C/c1cccnc1
CC1CC(C)CN(S(=O)(=O)c2ccc(C(=O)OCC(=O)Nc3ccccc3)cc2)C1 (configuration not stated)
Cc1noc(C)c1S(=O)(=O)Nc1ccc2c(c1)C(=O)N([C@H](C)CO)C[C@H](C)[C@@H](CN(C)C(=O)Nc1ccc3c(c1)OCO3)O2
Cc1c(C(=O)OC2CCCCC2)[nH]c2c1C(=O)CC(c1ccc(C(C)(C)C)cc1)C2 (configuration not stated)
c1ccc(Cn2c(CNc3nc4ccccc4n3CCN3CCOCC3)nc3ccccc32)cc1
CCCc1nnc(NC(=O)c2cc(=O)c3cc(C)c(C)cc3o2)s1
O=C1C2C3C=CC(CC3)C2C(=O)N1/N=C/c1ccccc1O (configuration not stated)
COc1ccc2c(CNC3CCCCCC3)c(C(=O)O)n(Cc3ccccc3F)c2c1

Potency, active:
CCSc1ncc(Cl)c(C(=O)N(Cc2ccccc2)c2ccc(OC)cc2)n1 5.62 µM

Potency, inconclusive:
O=C(C[n+]1ccc(/C=C/c2ccccc2)cc1)c1ccc2c(c1)OCCO2 31.6 µM [inhibitor, partial curve, poor fit]
OC(c1ccc2c(c1)OCO2)c1ncc(-c2cccc(C(F)(F)F)c2)[nH]1 (configuration not stated) 10 µM [inhibitor, partial curve, poor fit]
CCc1ccc(OCC2c3cc(OC)c(OC)cc3CCN2C(=S)NCCOC)cc1 (configuration not stated) 12.6 µM [inhibitor, single point]
Cc1ccccc1CN1CCC(n2nccc2NC(=O)c2ccc3c(c2)OCO3)CC1 3.55 µM [inhibitor, partial curve, poor fit]
Cc1cc(NC(=O)CCC(=O)N(c2ccc(F)cc2)C2(C(=O)NC3CCCCC3)CCCC2)no1 12.6 µM [inhibitor, single point]
Cc1cccc(C(=O)NCCc2nc3ccccc3n2Cc2ccc(Cl)cc2)c1 28.2 µM [inhibitor, single point]
Cc1ccc(C)c(C(=O)COC(=O)C(C)N2C(=O)C3C4CCC(C4)C3C2=O)c1 (configuration not stated) 28.2 µM [inhibitor, single point]
O=C(Nc1ccc(N2CCOCC2)c(Cl)c1)c1cccc(F)c1 10 µM [inhibitor, partial curve, poor fit]
CCOC(=O)c1cccc(NS(=O)(=O)c2ccc3[nH]c4c(c3c2)CCCC4)c1 12.6 µM [inhibitor, single point]
Cn1cc(CN2CCC(C(=O)Nc3cccc(-c4cccc(F)c4)c3)CC2)cn1 2.82 µM [inhibitor, partial curve, poor fit]
C=CCOC(=O)C1=C(C)NC(SCC(=O)Nc2nccs2)=C(C#N)C1c1cccs1 (configuration not stated) 11.2 µM [inhibitor, single point]
N#CC1=C(N)NC(=S)C(C(N)=O)C1c1ccccc1F (configuration not stated) 12.6 µM [inhibitor, partial curve, poor fit]
Cc1ccc(OC(C)C(=O)N2CCN(CCc3ccncc3)CC2)cc1C (configuration not stated) 6.31 µM [inhibitor, partial curve, poor fit]
Cc1nc2cc(C(F)(F)F)ccc2n1CCNc1nc(-c2ccc(F)cc2)cs1 11.2 µM [inhibitor, single point]
Cc1ccc(-n2cnc3cc(C(=O)NCc4ccc(F)cc4)ccc32)c(C)c1 22.4 µM [inhibitor, single point]
COc1ccccc1C(CNc1ccc(S(=O)(=O)N2CCCC2)cc1[N+](=O)[O-])N(C)C (configuration not stated) 12.6 µM [inhibitor, single point]
CCOC(=O)c1ccc2nc(C)cc(Nc3ccc(OC(C)C)cc3)c2c1 11.2 µM [inhibitor, partial curve, poor fit]
CCOC(=O)c1c(NS(=O)(=O)c2ccc(Br)cc2)sc2c1CCC2 28.2 µM [inhibitor, single point]
CCN(CC)S(=O)(=O)c1cccc(NC(=O)c2ccc(SC)cc2OC)c1 10 µM [inhibitor, partial curve, poor fit]
CC1S/C(=N/N=C/c2ccco2)N(Cc2ccc(F)cc2)C1=O (configuration not stated) 28.2 µM [inhibitor, single point]
CCCCc1c(-c2ccc(F)cc2F)ncn1CCc1ccccc1OC 28.2 µM [inhibitor, single point]
CN(C)c1ccnc2sc(C(N)=O)c(N)c12 1.58 µM [inhibitor, partial curve, poor fit]
O=C(NCc1cccc2[nH]ccc12)C1CCC(=O)N(CCc2ccc(Cl)cc2)C1 (configuration not stated) 0.447 µM [inhibitor, full curve, poor fit]
C(=N\Nc1nc(N2CCCCC2)nc(N2CCCCC2)n1)/c1c[nH]c2ccccc12 12.6 µM [inhibitor, partial curve, poor fit]
Cc1ccc(C(O)c2ncc(-c3ccc(Cl)cc3)[nH]2)cc1 (configuration not stated) 15.8 µM [inhibitor, partial curve, poor fit]
Cc1cc(C)c(C(=O)N(C)CC2CCCN(CCc3ccccc3F)C2)o1 (configuration not stated) 7.08 µM [inhibitor, partial curve]
CCc1ccccc1NC(=O)CN(C)C(=O)CSc1nnc(Nc2ccc(C)cc2)s1 25.1 µM [inhibitor, partial curve, poor fit]
Cn1c(SC/C=C/c2ccccc2)nnc1-c1ccco1 28.2 µM [inhibitor, single point]
CCOc1cc2c(cc1O)CCC1C2CCC2(C)C(O)CCC12 (configuration not stated) 1.12 µM [inhibitor, full curve, poor fit]
O=C(OCc1ccccc1)N1CCC2CC1c1ccc(/C=C/CCCCl)cc12 (configuration not stated) 14.1 µM [inhibitor, partial curve, poor fit]
COCC(=O)Nc1ccccc1-c1ccccc1 28.2 µM [inhibitor, single point]
COc1ccc(NC(=O)CCCN2C(=O)C(c3ccccc3)Oc3cccnc32)cc1 (configuration not stated) 11.2 µM [inhibitor, single point]
CCOC(=O)c1nc(Nc2ccc(N3CCC(C)CC3)cc2)c2ccccc2n1 28.2 µM [inhibitor, single point]
O=C(CN1CCN(Cc2cccc(C(F)(F)F)c2)CC1)NCC(=O)Nc1ccc(F)c(F)c1F 28.2 µM [inhibitor, single point]
O=C(c1ccc(C(F)(F)F)cc1)C1CCCN(Cc2cccn2-c2ncccn2)C1 (configuration not stated) 28.2 µM [inhibitor, single point]
CCOCN(C(=O)Cn1cnc2ccccc21)c1c(C)cccc1CC 11.2 µM [inhibitor, single point]
Cc1cccc(C(=O)NC2=NCCS2)c1 11.2 µM [inhibitor, single point]
COc1ccccc1C(=O)N1[C@@H](C(C)C)COc2cc(Br)ccc2S1(=O)=O 10 µM [inhibitor, single point]
O=C(c1ccc2c(c1)OCO2)C1CCCN(Cc2c(F)ccc(F)c2F)C1 (configuration not stated) 10 µM [inhibitor, partial curve]
CCc1nc2ccc(C(=O)NCCc3ccccn3)cn2c1N(CCC(C)C)CCN(C)C 10 µM [inhibitor, single point]
CCCCCCCNC(=O)C1(CC2CC(c3cccc(Br)c3)=NO2)CCN(C(=O)Cc2ccc(F)cc2)CC1 (configuration not stated) 10 µM [inhibitor, partial curve, poor fit]
CCOC(=O)c1cnc2ccc(C)cc2c1Nc1ccc(N(CC)CC)cc1 12.6 µM [inhibitor, partial curve, poor fit]
COC(=O)C1=C(C)N(Cc2ccccc2)C(=NCc2ccccc2)N[C@H]1c1cccc(C(F)(F)F)c1 28.2 µM [inhibitor, single point]
COc1ccc(CN(Cc2cccn2C)S(=O)(=O)c2ccc(C)cc2)cc1 11.2 µM [inhibitor, single point]
CC1C/C(=C/c2cccs2)C(=O)/C(=C/c2cccs2)C1 (configuration not stated) 11.2 µM [inhibitor, single point]
O=C(Nc1ccc(F)cc1)C1CCN(S(=O)(=O)c2ccc3c(c2)CCCN3C(=O)C2CCC2)CC1 28.2 µM [inhibitor, single point]
COc1cccc(C2NC(=O)NC(O)(C(F)(F)F)C2C(=O)c2cccnc2)c1OC (configuration not stated) 0.501 µM [inhibitor, full curve, poor fit]
CCN1C(=O)[C@H]2[C@@H](c3ccc(-c4ccc(Cl)c(Cl)c4)c(OC)c3)N[C@@](Cc3ccccc3)(C(=O)OC)[C@H]2C1=O 14.1 µM [inhibitor, partial curve, poor fit]
